Molecular target: the molecule itself
Test: crystal structure; 11.003 Fab with IL-17A (34-155, C129S), 1.5-fold molar excess of Fab, complex purified by SEC; 1.9 Å

B1: recombinant human IL-17A ([…], Cys129 mutated to Ser) (ligand)
chain: not shown
notes: human interleukin-17A, […] of UniProt entry […] with Cys129 mutated to Ser; Homodimer in the crystal
binding result: binds

Reference: publication PMC10542344 (Communications Biology, 2023)
